Experimental data taken from PubChem BioAssay AID1645887 (National Center for Advancing Translational Sciences (NCATS), 2021).
Several values for one entry are separate records, joined by “and”; a condition that tells them apart may be missing. Equal entries are not always repeated. About 40 (0.2%) of roughly 16,000 compounds were called active. About 1% were inconclusive and are not listed. Calls follow the shape of the dose curve; as a rule, active = well fitted activation curve with a large enough effect; inconclusive = small, poorly fitted or top-dose-only effect, or another doubt; inactive = no such curve, though single readings can be large or run the other way. The list shows a part of the results.

Target: Rap guanine nucleotide exchange factor 4 (Homo sapiens) (UniProt Q8WZA2)
Test: Validation qHTS for agonist of cAMP-regulated guanine nucleotide exchange factor 4 (EPAC2);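 as to activation: exchange makes BODIPY-GDP fluorescence drop when released from Rap1B; series mostly up to about 150 µM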
Conditions: EPAC2 Rap1B BODIPY-GDP exchange, fluorescence; activation: stronger effect = higher value
Outline: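 Fluorescent exchange assay: 100 nM EPAC2 with 250 nM RAP1B-BODIPY-GDP and 50 uM GDP; compound added, 5 min at room temperature, then read (ex 480/em 540 nm) every 5 min for 30 min. Normalized to 6.5 mM cAMP agonist control.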
% is scaled to controls: 0 for no effect and ±100 for the full control effect; potency is read from the fitted curve at half-maximal effect.

Sequence of UniProt Q8WZA2 (Q8WZA2 whole entry, looked up): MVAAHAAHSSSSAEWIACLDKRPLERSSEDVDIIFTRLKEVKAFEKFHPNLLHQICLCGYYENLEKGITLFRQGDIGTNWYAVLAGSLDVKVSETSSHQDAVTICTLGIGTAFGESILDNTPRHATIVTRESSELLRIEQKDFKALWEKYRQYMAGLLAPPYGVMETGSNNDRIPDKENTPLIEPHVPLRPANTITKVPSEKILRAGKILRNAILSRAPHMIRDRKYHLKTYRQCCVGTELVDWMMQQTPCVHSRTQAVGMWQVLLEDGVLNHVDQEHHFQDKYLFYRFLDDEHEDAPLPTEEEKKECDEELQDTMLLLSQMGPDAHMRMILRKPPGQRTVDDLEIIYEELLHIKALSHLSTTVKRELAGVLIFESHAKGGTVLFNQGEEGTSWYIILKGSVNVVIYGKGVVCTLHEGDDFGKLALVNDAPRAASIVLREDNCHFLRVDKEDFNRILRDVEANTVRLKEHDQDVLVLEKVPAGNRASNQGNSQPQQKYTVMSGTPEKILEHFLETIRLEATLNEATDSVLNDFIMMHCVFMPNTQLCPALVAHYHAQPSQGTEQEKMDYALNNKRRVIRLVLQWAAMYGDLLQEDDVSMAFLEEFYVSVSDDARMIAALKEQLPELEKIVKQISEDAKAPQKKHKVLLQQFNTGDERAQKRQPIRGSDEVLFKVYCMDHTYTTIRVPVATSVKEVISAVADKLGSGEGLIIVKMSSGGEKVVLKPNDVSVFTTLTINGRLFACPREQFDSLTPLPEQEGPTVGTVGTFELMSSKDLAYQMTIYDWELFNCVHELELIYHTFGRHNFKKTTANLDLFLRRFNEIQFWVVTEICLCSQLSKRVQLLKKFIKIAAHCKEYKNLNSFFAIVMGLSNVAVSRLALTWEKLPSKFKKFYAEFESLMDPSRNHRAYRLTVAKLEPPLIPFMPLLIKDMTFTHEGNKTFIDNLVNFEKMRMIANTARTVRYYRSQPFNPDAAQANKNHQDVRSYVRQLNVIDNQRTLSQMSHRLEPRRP

Compound | activation | Potency
O=C(c1cc(C(F)(F)F)cc(C(F)(F)F)c1)N1CCC2(CC1)CN(c1ccccn1)C2 | inactive: -41.2% | –
COc1cccc2c1C(=O)c1c(O)c3c(c(O)c1C2=O)C[C@@](O)(C(=O)CO)C[C@@H]3O[C@H]1C[C@H](N)[C@H](O)[C@H](C)O1 | inactive: -17.2% | –
Cc1ncc2c(c1CNC(=O)CN1CCCC1)CCN(C(=O)c1ccc(F)cc1F)C2 | inactive: -2.16% | –
C[C@H]1O[C@H](O[C@H]2[C@H](O)[C@@H](O)[C@@H](O[C@H]3[C@H](O)[C@@H](O)[C@H](O)O[C@@H]3CO)O[C@@H]2CO)[C@H](O)[C@@H](O)[C@@H]1N[C@H]1C=C(CO)[C@@H](O)[C@H](O)[C@H]1O | inactive: -7.09% | –
Cc1cc2c(cc1S(N)(=O)=O)S(=O)(=O)CCC2 | inactive: -84.3% | –
O=S1(=O)[C@H]2C[C@@H]3C=C[C@@]2(CN1Cc1cccc(Cl)c1)O3 | inactive: -17.2% | –
COc1ccc(C(=O)N2CCC[C@@]3(CCN(c4cccc(-c5ccccc5)c4)C3)C2)cc1 | inactive: 3.34% | –
CSc1nc(C(=O)NCc2nc(-c3cccc(NC(=O)c4ccccn4)c3)oc2C)cs1 | inactive: -22.1% | –
CN(C)c1ccc(/C=C2\C(=O)/C(=C\c3ccc(N(C)C)cc3)c3ccccc32)cc1 | inactive: -7.68% | –
COc1ccccc1CNc1ccnc(-c2c(C)noc2C)n1 | inactive: 5.45% | –
CN1CCc2cc(O)c(O)cc2C(c2ccccc2)C1 (stereo unspecified) | inactive: -27.2% | –
COC(=O)[C@@H](c1ccccc1Cl)N1CCc2sccc2C1 | inactive: 3.16% | –
CC(=O)OC1C=C[C@]2(C)C(CC(OC(C)=O)[C@@]3(C)C4=CC(=O)OC(c5ccoc5)[C@]4(C)CCC23)C1(C)C (stereo partly specified) | inactive: 9.76% | –
CCNc1ncc2ncc(=O)n(C3CC3)c2n1 | inactive: -7.32% | –
CC(=O)SC1CC2=CC(=O)CC[C@@]2(C)C2CC[C@@]3(C)[C@@H](CC[C@@]34CCC(=O)O4)C12 (stereo partly specified) | inactive: -13% | –
Nc1nc2c(ncn2[C@@H]2O[C@H](CO)[C@@H](O)[C@H]2O)c(=O)[nH]1 | inactive: -1.97% | –
CCn1ccnc1C[C@@H]1COc2ccccc2O1 | inactive: 5.97% | –
CN(C)c1ccnc(-c2ccccc2C(F)(F)F)n1 | inactive: -13.9% | –
NCCNCCNCCNCCN | inactive: 3.31% | –
CCOC(=O)N1CCN(Cc2ccc3c(c2)CN(C(=O)c2sc(C)nc2C)CCO3)CC1 | inactive: -14.2% | –
COc1ccccc1CNc1ncncc1-c1ccccc1C | inactive: -8.71% | –

Compound | activation | Potency
Cc1ccccc1-c1cncnc1NCc1cccs1 | inactive: -29.1% | –
CCCCC(=O)O[C@@]1(C(=O)CO)C(C)CC2C3CCC4=CC(=O)C=C[C@@]4(C)[C@]3(F)C(O)C[C@]21C (stereo partly specified) | inactive: -22.7% | –
COc1cccc(Cn2c(=O)c(-c3ccc(Cl)cc3)nc3cnc(OC)nc32)c1 | inactive: 1.58% | –
CNc1ncncc1-c1ccc(C(=O)N(C)C)cc1 | inactive: -4.79% | –
CCNc1ncc2nc(-c3cccc(C#N)c3)c(=O)n(Cc3cccc(OC)c3)c2n1 | inactive: 3.97% | –
CN[C@@H]1[C@@H](O)[C@@H](O[C@@H]2[C@@H](O)[C@H](OC3OC(CN)=CCC3N)[C@@H](N)C[C@H]2N)OC[C@]1(C)O (stereo partly specified) | inactive: 6.15% | –
Cc1ncc2c(c1CNC(=O)c1ccc3c(c1)OCO3)CCN(C(=O)c1ccoc1)C2 | inactive: -3.86% | –
COc1c(-c2coc3cc4c(cc3c2=O)CC(OC(C)=O)C(C)(C)O4)ccc2c1C=CC(C)(C)O2 (stereo unspecified) | inactive: -16.3% | –
NC(=O)c1cc[n+](CC2=C(C(=O)O)N3C(=O)[C@@H](NC(=O)[C@@H](c4ccccc4)S(=O)(=O)[O-])[C@H]3SC2)cc1 | inactive: 0.636% | –
CC(C)c1ccc2oc3nc(N)c(C(=O)O)cc3c(=O)c2c1 | inactive: 25.1% | –
N/C(=N\N=C\c1ccc(Cl)cc1)N/N=C/c1ccc(Cl)cc1 | inactive: 6.79% | –
COc1ccc(NC(=O)N2CC[C@@]3(CCCN(C(=O)c4csnn4)C3)C2)cc1 | inactive: -17.3% | –
Cc1cnc(CNc2ncncc2-c2ccccc2C(F)(F)F)cn1 | inactive: -17.8% | –
Cc1cc(-c2ccnc(-n3ncc(C(=O)N4CCCCC4c4cccnc4)c3C3CC3)n2)c(C)s1 (stereo unspecified) | inactive: 2.18% | –
COc1ccc(-c2nc3cnc(Nc4cccc(OC)c4)nc3n(C[C@H]3CCCO3)c2=O)cc1 | inactive: -2.96% | –
CCNc1ncc2nc(-c3cn(C)c4ccccc34)c(=O)n(Cc3cccc(OC)c3)c2n1 | inactive: -18% | –
Cc1ncc2c(c1CNC(=O)/C=C/c1cccs1)CCN(C(=O)c1ccc3c(c1)OCCO3)C2 | inactive: -5.28% | –
CCN1CCCC1CNC(=O)c1cnn(-c2nccc(-c3cccs3)n2)c1C1CC1 (stereo unspecified) | inactive: -18.3% | –
O=c1c(-c2ccc(F)cc2)nc2cncnc2n1Cc1ccccc1 | inactive: -6.68% | –
O=C(NCCN1Cc2ccccc2OC(c2ccsc2)C1)c1ccc2[nH]ccc2c1 (stereo unspecified) | inactive: 7.93% | –
CCCCCc1ccc(-c2cn(CC3CCCCC3)nn2)cc1 | inactive: -17.7% | –

Compound | activation | Potency
CCO[C@@H]1O[C@H](C(COCc2ccccc2)OCc2ccccc2)[C@H](OCc2ccccc2)[C@H]1O (stereo partly specified) | inactive: -43.2% | –
NC(C(=O)N[C@@H]1C(=O)N2C(C(=O)O)=C(Cl)CS[C@H]12)c1ccccc1 (stereo partly specified) | inactive: -50.7% | –
CCOC(=O)c1c(N)sc2c1CCN(Cc1ccccc1)C2 | inactive: -24.9% | –
CC(=O)Oc1ccc2c(c1)CC[C@@H]1[C@@H]2CC[C@]2(C)[C@@H](O)CC[C@@H]12 | – | active: 44.7 µM
COc1ccc(C(Cl)=C(c2ccc(OC)cc2)c2ccc(OC)cc2)cc1 | inactive: -4.52% and inactive: -1.99% | –
O=c1[nH]c2cc(C(F)(F)F)c(N3CCOCC3)cc2n(CP(=O)(O)O)c1=O | inactive: -10.1% | –
Cc1oncc1C(=O)Nc1ccc(C(F)(F)F)cc1 | inactive: -37.1% and inactive: -36.7% and inactive: -49.9% | –
Nc1ccn(C2CO[C@H](CO)O2)c(=O)n1 (stereo partly specified) | inactive: -25.3% | –
CN(C)c1ccc(C=O)cc1[N+](=O)[O-] | inactive: -21.6% | –
COc1ccc(C(=O)N2CCC[C@@]3(CCN(Cc4cc(C(F)(F)F)cc(C(F)(F)F)c4)C3)C2)cc1 | inactive: -26.8% | –
CC1CC(OC(=O)C(O)c2ccccc2)CC(C)(C)C1 (stereo unspecified) | inactive: -39.2% | –
OC1(c2cccnc2)CCN(Cc2ccc3c(c2)CN(Cc2ccc4nsnc4c2)CCO3)CC1 | inactive: -21% | –
COCC(=O)N1CCC2(CCCN(c3ccccc3)C2)CC1 | inactive: -8.78% | –
Cc1ncc2c(c1CNS(=O)(=O)N(C)C)CCN(C(=O)c1ccc(F)cc1Cl)C2 | inactive: 5.94% | –
Cc1nc(-c2coc3c(O)c(O)ccc3c2=O)cs1 | inactive: -15.8% | –
O=S1(=O)CCOC[C@H](CC2CCCCC2)N1Cc1cccc(C(F)(F)F)c1 | inactive: -27.5% | –
CS(=O)(=O)N1CCC[C@@]2(CCN(C(=O)Nc3cccc(F)c3)C2)C1 | inactive: -10.7% | –
CC(CCc1ccccc1)NCC(O)c1ccc(O)c(C(N)=O)c1 (stereo unspecified) | inactive: -22.6% and inactive: -8.7% and inactive: -24% | –
O=C(O)c1ccccc1[O-].O=C(O)c1ccccc1[O-].[Zn+2] | inactive: -8.01% | –
COCCn1c(=O)c(CCc2ccccc2)nc2cnc(Oc3ccccc3)nc21 | inactive: -8.02% | –
CCOC(=O)[C@H](CCc1ccccc1)N[C@@H](C)C(=O)N1Cc2ccccc2C[C@H]1C(=O)O | inactive: -14.8% | –

Compound | activation | Potency
CS(=O)(=O)N1CCC2(CC1)CN(c1ncccn1)C2 | inactive: -12.8% | –
Cc1cc2c(c(-c3ccc4nc(C)ccc4c3)c1)OC(CNC(=O)Cc1ccn(C)c1)C2 (stereo unspecified) | inactive: 18.7% | –
Cc1cc(C)cc(NC(=O)C2CC23CCN(Cc2ccc4ncccc4c2)CC3)c1 (stereo unspecified) | inactive: -1.56% | –
COCCn1c(=O)c(-c2cccc(C#N)c2)nc2cnc(OCc3ccccc3)nc21 | inactive: 10.5% | –
CC1CC[C@@]2(OC1)OC1CC3C4CC[C@H]5CC(O)CC[C@@]5(C)C4CC[C@]3(C)C1C2C (stereo partly specified) | inactive: -11.5% | –
CCCCCCCCCCCCCC(=O)N[C@@H](C)[C@H](O)c1ccccc1 | inactive: 4% | –
Cc1cc(NC(=O)Nc2ccc(N(C)C)cc2)c2cc(F)cc(F)c2n1 | inactive: -12.4% | –
Cc1onc(-c2c(Cl)cccc2Cl)c1C(=O)N[C@@H]1C(=O)N2[C@@H]1SC(C)(C)[C@@H]2C(=O)O | inactive: -21% | –
COCCn1c(=O)c(-c2cccc(C#N)c2)nc2cnc(N3CCOCC3)nc21 | inactive: 8.08% | –
OC[C@H]1O[C@@H](n2cnc3c2NC=NC[C@H]3O)C[C@@H]1O | inactive: -14.4% | –
COc1cc(OC)c(C(C)=O)c(O)c1C | inactive: -20.6% | –
N#CCCn1c(=O)c(-c2ccc(Cl)cc2)nc2cnc(Oc3cccc(Cl)c3)nc21 | inactive: -3.14% | –
CC1(C)Oc2ccc(C#N)cc2[C@@H](N2CCCC2=O)[C@@H]1O | inactive: -15.4% and inactive: -7.61% | –
Cc1cc(O)c(C=O)c2c1C(=O)Oc1c(C)c(O)c3c(c1O2)C(O)OC3=O (stereo unspecified) | inactive: -3% | –
CN1C(C)(C)CCCC1(C)C | inactive: -13.7% | –
O=c1[nH]c(=O)n(C2CC(O)C(CO)O2)cc1C(F)(F)F (stereo unspecified) | inactive: -12.7% | –
CCCCc1c(C)[nH]c2c(OC)cccc2c1=S | inactive: -30.9% | –
COc1ccc(CNc2ccnc(-c3ccc(C(=O)N(C)C)cc3)n2)c(OC)c1 | inactive: -11% | –
